# Source: PubChem BioAssay AID504832 (National Center for Advancing Translational Sciences (NCATS), 2011)
# In all, about 310,000 compounds went through this assay and about 18,000 (5.8%) were called active. Inconclusive results, whose numbers are uncertain, are shown with a selection of clear calls. Calls come from the whole dose curve; as a rule, active = well fitted inhibition curve with a large enough effect; inconclusive = small, poorly fitted or top-dose-only effect, or another doubt; inactive = no such curve, though single readings can be large or run the other way. Potencies of inconclusive entries are left out as doubtful fits.
# Assay: Primary qHTS for delayed death inhibitors of the malarial parasite plastid, 48 hour incubation
# Conditions: P. falciparum luciferase growth in erythrocytes; series mostly up to 28.7 µM; activity change, negative = inhibition: at the top concentration
# Procedure, shortened: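 Compounds are pin-transferred into medium, infected erythrocytes (2% hematocrit, 0.1% parasitemia final) are added, and plates sit one parasite generation at 37 C in 5% CO2. Detection reagent is then added and luminescence measured.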
# % is set by controls: 0 for no effect and ±100 for the full control effect; potency is the fitted concentration of half-maximal effect; tags give direction and shape of the fitted curve.
Compound,"activity change, negative = inhibition",Potency
O=C(Nc1ccc(F)cc1)OCCOc1ccc([N+](=O)[O-])cc1,inactive: -24.9%,
O=C(COC(=O)/C(=C/c1cccs1)c1cccs1)NC(c1ccccc1)c1ccccc1,,"inconclusive [inhibitor, partial curve, poor fit]"
COc1ccc(NC2=NC(C)(CO)CS2)cc1 (stereo not given),,"inconclusive [inhibitor, single point]"
CC(C)CNC(=O)[C@H](Cc1ccccc1)NC(=O)c1cccs1,inactive: -14.6%,
Cc1ccc(SCCNC(=O)c2ccc(C)c(S(=O)(=O)Nc3cccc(C)c3)c2)cc1,,"inconclusive [inhibitor, partial curve, poor fit]"
O=C(C[n+]1cc(-c2ccc(Cl)cc2)n2c1CCC2)N1c2ccccc2Sc2ccccc21,,active: 1.65 µM
CN(Cc1ccc(Cl)cc1Cl)C(=O)CNC(=O)c1ccc2c(c1)OCO2,,active: 10.4 µM
Cc1cc2c(=O)n(C)c(SCC(=O)Nc3cccc(F)c3)nc2s1,,"inconclusive [inhibitor, single point]"
CC(C)c1ccc(CN(C(=O)c2cccs2)C2CCS(=O)(=O)C2)cc1 (stereo not given),,"inconclusive [inhibitor, partial curve, poor fit]"
CCOC(=O)c1c(C)[nH]c(C(=O)CN2C(=O)NC(C)(c3ccc(C)cc3)C2=O)c1C (stereo not given),,"inconclusive [inhibitor, partial curve, poor fit]"
COc1cc(C(=O)Nc2ccccc2NC(=O)c2cc(OC)c(OC)c(OC)c2)cc(OC)c1OC,,"inconclusive [inhibitor, partial curve]"
O=C(NCCCN1CCCC1=O)Nc1cc(Cl)ccc1Cl,inactive: 6.63%,
O=C(c1cc(-c2ccc(Cl)cc2)n(-c2ccc(Cl)c(Cl)c2)n1)N1CCOCC1,,"inconclusive [inhibitor, partial curve, poor fit]"
COCCOc1ccc(C(F)(F)F)cc1NC(=O)COC(=O)c1cc[n+]([O-])cc1,,"inconclusive [inhibitor, single point]"
CC(Oc1ccc(F)cc1)C(=O)Nc1sc2c(c1C(=O)NCc1cccnc1)CCCC2 (stereo not given),,active: 8.28 µM
COC(=O)C1C(C(C)C)N(c2ccccc2)OC1(C)O (stereo not given),,"inconclusive [inhibitor, single point]"
COc1ccc([C@H]2CC(=O)C=C(c3cccc(CO)c3)C2)cc1OC,,"inconclusive [inhibitor, partial curve, poor fit]"
Cc1ccccc1CSc1ncc(C#N)c(N)n1,inactive: 3.37%,
CN(C)CCN1C(=O)c2oc3ccc(Cl)cc3c(=O)c2C1c1cccc(Br)c1 (stereo not given),,active: 1.85 µM
CC(C)=CC(=O)N1CCCC(N2CCN(c3ccccc3C)CC2)C1 (stereo not given),,"inconclusive [inhibitor, partial curve, poor fit]"
CCCCN(CCO)CCCC,inactive: 37%,
CCOC(=O)N1CCN(Cc2nc3c(c(=O)n(C)c(=O)n3C)n2Cc2cccc3ccccc23)CC1,,active: 11.7 µM
CCc1cccc2sc(N3CCN(C(=O)c4ccc([N+](=O)[O-])o4)CC3)nc12,,active: 0.657 µM
O=C(c1cc2cc(F)ccc2[nH]1)N1CCN(C(=O)c2ccco2)CC1,,"inconclusive [inhibitor, single point]"

Compound,"activity change, negative = inhibition",Potency
CN(C)S(=O)(=O)c1ccc(N2CCCC2)c(C(=O)Nc2nc3c(ccc4ccccc43)s2)c1,,"inconclusive [inhibitor, single point]"
COc1ccc(Cl)c2sc(N3CCN(C(=O)C4=COCCO4)CC3)nc12,,"inconclusive [inhibitor, full curve, poor fit]"
O=C(c1cc2ccccc2oc1=O)N(c1ccc(Cl)cc1)C1C=CS(=O)(=O)C1 (stereo not given),inactive: -6.04%,
COc1ccc(/C=C2\C(=O)OCc3cc(OC)c(OC)cc32)cc1OC,,"inconclusive [inhibitor, partial curve, poor fit]"
Fc1cccc(CNc2ncnc3ccc(-c4ccccc4Cl)cc23)c1,,active: 5.86 µM
Cc1nnc(-c2ccco2)c2cn(-c3cccc(Br)c3)nc12,,"inconclusive [inhibitor, single point]"
CCN(CC(=O)Nc1c(F)cccc1F)C(=O)C1CC(=O)N(c2ccc3c(c2)OCCO3)C1 (stereo not given),,"inconclusive [inhibitor, single point]"
CCOC(=O)C1CCN(C(=S)NC(=O)c2cccs2)CC1,,"inconclusive [inhibitor, single point]"
O=C(CN1CCCc2ccccc21)N/N=C/c1c(O)ccc2ccccc12,,"inconclusive [inhibitor, single point]"
CCOc1ccccc1NC(=O)c1cccc(NC(=O)C2CCCC2)c1,inactive: -28%,
Cc1ccc(SCc2nc3ccccc3n2CC(=O)Nc2ccc(Cl)cc2)cc1,,"inconclusive [inhibitor, single point]"
Cc1ccc(NC(=O)CN(C)C(=O)c2cc(-c3ccco3)nc3ccccc23)cc1,,active: 10.4 µM
Cc1ccccc1NC(=O)CCN1CCN(C/C=C/c2ccccc2)CC1,,"inconclusive [inhibitor, single point]"
C=C(C)Cc1c(C)nc(-c2ccccc2)[nH]c1=O,,"inconclusive [inhibitor, single point]"
CCOC(=O)c1cn(CC(=O)Nc2cccc(Cl)c2C)nn1,inactive: 12.3%,
COc1ccc(CC(=O)NCc2ccc(-n3cccc3)cc2)cc1OC,,"inconclusive [inhibitor, partial curve, poor fit]"
Cc1cc(NC(=O)C2CCN(S(=O)(=O)Cc3ccccc3)CC2)ccc1-n1cnnn1,,"inconclusive [inhibitor, single point]"
Cc1ccc(NC(=S)N2CCCC2)cc1Cl,inactive: 0.999%,
COc1ccc(C2=NCCn3c2c2ccc(C(F)(F)F)cc2[n+]3[O-])cc1,,"inconclusive [inhibitor, single point]"
Cc1cc(C)c2nc(SCC(=O)NC(=O)c3cccn3C)cc(C)c2c1,inactive: -13.7%,
O=C(O)c1ccccc1-c1ccccc1C(=O)Nc1ccc2c(c1)[nH]c(=O)c1ccccc12,,"inconclusive [inhibitor, full curve, poor fit]"
COc1ccccc1NC(=O)C(C)OC(=O)CC1CCCCC1 (stereo not given),,active: 13.1 µM
OC12CCCCC1C(c1ccc3c(c1)OCO3)N(Cc1ccccc1F)CC2 (stereo not given),,"inconclusive [inhibitor, single point]"
CC1(C)C(O)=C(c2nc3ccccc3[nH]2)C(=N)N1c1ccccc1,,"inconclusive [inhibitor, single point]"

Compound,"activity change, negative = inhibition",Potency
O=C(O)c1ccc(NC2CC(=O)N(Cc3ccccc3)C2=O)cc1 (stereo not given),inactive: 4.37%,
O=C(N/N=C/c1cn(-c2ccccc2)nc1-c1ccc(F)cc1)c1ccc2c(c1)OCO2,,"inconclusive [inhibitor, full curve]"
O=C(CCCN1C(=O)NC2(CCCC2)C1=O)NCc1ccccc1,,"inconclusive [inhibitor, partial curve, poor fit]"
Cc1ccc(N(Cc2ccc(C(=O)Nc3ccccc3C(=O)NCc3ccco3)cc2)S(C)(=O)=O)cc1C,,active: 3.7 µM
O=C(c1ccc(N2CCCCC2)c([N+](=O)[O-])c1)N(Cc1ccccc1)c1ccccn1,,"inconclusive [inhibitor, single point]"
COc1cccc(NC(=O)c2oc3ccccc3c2NC(=O)C(C)(C)C)c1,,"inconclusive [inhibitor, single point]"
COc1ccccc1N1CCN(CC(=O)Nc2c(C)n(C)n(-c3ccccc3)c2=O)CC1,inactive: 19%,
CCN1C(=O)[C@H]2[C@@H](c3ccc(-c4cccc(Cl)c4)cc3)N[C@@](Cc3ccccc3)(C(=O)OC)[C@H]2C1=O,,active: 4.65 µM
COc1ccc(C(=O)NC(Cc2ccccc2)c2ccc3c(c2)OCCCO3)cc1 (stereo not given),,"inconclusive [inhibitor, partial curve, poor fit]"
Cc1noc(/C=C/c2cccnc2)c1[N+](=O)[O-],,"inconclusive [inhibitor, partial curve, poor fit]"
Cc1ccn2cc(CSc3ccccc3)nc2c1,inactive: 175%,
CCOc1cccc(N2CCN(CCNC(=O)Nc3ccc(C)cc3)CC2)c1C,,"inconclusive [inhibitor, partial curve]"
O=[N+]([O-])c1ccc(-n2nnnc2CN2CCOCC2)cc1,inactive: 3.1%,
Cc1ccc(NC(=O)Cc2ccc(Cl)cc2)cc1S(=O)(=O)N1CCCCCC1,,active: 13.1 µM
COc1ccc(C(=O)NNc2cc(C)nc(NNC(=O)c3ccc(OC)cc3)n2)cc1,inactive: 58%,
COc1ccc(S(=O)(=O)N2CCN(C3CC4CCC3C4)CC2)cc1 (stereo not given),,"inconclusive [inhibitor, partial curve, poor fit]"
O=C(Nc1cccc(Cl)c1)Nc1ccnc(-c2cccnc2)n1,,active: 10.4 µM
CCN(CC)CCOc1ccc(/C(=C(\Cl)c2ccccc2)c2ccccc2)cc1,,active: 2.08 µM
COC(CN(C)C(=O)C1CCCN(S(=O)(=O)c2ccc3c(c2)oc(=O)n3C)C1)OC (stereo not given),inactive: 7.31%,
Cc1cc(C(=O)NCCc2ccc(Cl)cc2)no1,,active: 6.57 µM
O=C(C1CCCN(S(=O)(=O)c2cc(Cl)ccc2Cl)C1)N1CCOCC1 (stereo not given),inactive: -2.01%,
Cc1ccc(-c2nnn(CC(=O)N(CCO)C(C(=O)NC(C)(C)C)c3ccncc3)n2)cc1 (stereo not given),inactive: 22.3%,
